From article PMC4336329 (PLoS ONE, 2015) come the findings set out here.

Structures are written as SMILES. Among all 310,000 compounds or so, about 2,200 (0.71%) showed an effect of 50% or more. Effects have a minus sign here. This is one part of the list.

The target of the assay is human ether-à-go-go-related gene (hERG) potassium channel (human, UniProt Q12809). Put plainly: primary screen, population patch clamp on CHO cells stably expressing hERG.
Chain of human ether-à-go-go-related gene (hERG) potassium channel (Q12809 whole entry, looked up): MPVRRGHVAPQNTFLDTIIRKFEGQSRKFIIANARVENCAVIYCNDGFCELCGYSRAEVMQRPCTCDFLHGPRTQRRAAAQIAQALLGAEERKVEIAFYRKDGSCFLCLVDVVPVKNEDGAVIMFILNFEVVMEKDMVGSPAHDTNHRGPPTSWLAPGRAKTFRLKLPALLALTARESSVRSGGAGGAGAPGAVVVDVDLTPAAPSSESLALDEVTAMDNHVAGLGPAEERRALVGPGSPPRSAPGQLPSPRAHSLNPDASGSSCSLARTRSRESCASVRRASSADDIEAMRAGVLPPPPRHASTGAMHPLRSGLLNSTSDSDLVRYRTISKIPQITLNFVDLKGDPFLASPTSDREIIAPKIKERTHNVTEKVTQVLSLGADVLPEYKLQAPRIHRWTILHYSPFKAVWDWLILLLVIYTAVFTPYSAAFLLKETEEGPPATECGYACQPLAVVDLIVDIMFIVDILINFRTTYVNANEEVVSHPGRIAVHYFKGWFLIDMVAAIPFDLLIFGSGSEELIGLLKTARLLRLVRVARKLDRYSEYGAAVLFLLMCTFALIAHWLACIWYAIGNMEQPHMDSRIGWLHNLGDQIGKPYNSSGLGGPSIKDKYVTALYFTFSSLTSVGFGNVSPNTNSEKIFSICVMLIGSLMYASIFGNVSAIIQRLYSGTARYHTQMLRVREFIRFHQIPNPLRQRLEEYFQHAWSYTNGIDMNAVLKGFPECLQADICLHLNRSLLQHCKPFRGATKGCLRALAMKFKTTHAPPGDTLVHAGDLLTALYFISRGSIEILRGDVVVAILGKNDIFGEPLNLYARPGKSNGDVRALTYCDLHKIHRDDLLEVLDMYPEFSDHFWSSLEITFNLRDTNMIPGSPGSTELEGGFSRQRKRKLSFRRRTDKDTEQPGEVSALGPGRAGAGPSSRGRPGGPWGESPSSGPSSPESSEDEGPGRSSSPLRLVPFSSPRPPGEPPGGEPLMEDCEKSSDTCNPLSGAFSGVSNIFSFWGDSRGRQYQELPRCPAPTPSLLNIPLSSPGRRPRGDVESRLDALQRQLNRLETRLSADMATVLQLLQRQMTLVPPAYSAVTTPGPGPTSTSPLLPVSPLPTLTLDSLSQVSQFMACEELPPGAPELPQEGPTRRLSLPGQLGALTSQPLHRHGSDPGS
Take `COc1ccc(C(=O)Nc2cc(Cl)cc(Cl)c2)c(OC)n1`: the “hERG current change (%, negative = inhibition) at 1uM” value is 8.3%. Regarding `COc1ccc(NC(=O)CSCC(=O)NC2(C)CCS(=O)(=O)C2)cc1` (stereo not shown), the “hERG current change (%, negative = inhibition) at 1uM” value is listed as 10.3%.

Consider `COc1ccc(C(=O)OCC(=O)c2ccccc2)cc1S(=O)(=O)N1CCOCC1`, for which the “hERG current change (%, negative = inhibition) at 1uM” value is given as 1.33%.

Take `Cn1nnnc1SCC(=O)N1CCN(C(=O)c2ccco2)CC1`: the “hERG current change (%, negative = inhibition) at 1uM” value is listed as -6.91%. In the case of `NC(=O)c1cc(S(=O)(=O)N2CCOCC2)cs1` it was 18.9%; in that of `O=C(Nc1nccs1)c1cc(N2CCOCC2)nc2ccccc12`, 11.4%; in that of `CCc1ccc(OCC(=O)O/N=C(\N)c2cccnc2)cc1`, 0.0916%. The result for `C=CCSc1nc2c(c(=O)[nH]1)C(c1ccccc1)C(C#N)=C(N)O2` (stereo not shown) reads 5.71%; that for `OC1CCN(Cc2ccc(OCc3ccccc3)cc2)CC1`, 13.1%; that for `O=C(CSc1c(Cl)cccc1Cl)NC1CCCc2ccccc21` (stereo not shown), 5.72%. In the case of `c1ccc2nc(N3CCCC3)c(N3CCCC3)nc2c1`, the “hERG current change (%, negative = inhibition) at 1uM” value is listed as 12.1%. With `CC(=O)NCCc1ccc(S(=O)(=O)NCc2ccc3c(c2)OCO3)cc1`, the “hERG current change (%, negative = inhibition) at 1uM” value worked out at 11.9%. The result for `CCc1nnc(NC(=O)CSc2nnc(C)n2-c2ccc(C)cc2)s1` reads 0.271%; that for `COc1ccc(C(=O)NNC(=O)CCn2nnc(-c3ccc(Cl)cc3)n2)cc1OC`, 24.5%.

As for `NS(=O)(=O)c1cccc(NC(=O)CSc2nc3ccccc3n2-c2ccccc2)c1`, the “hERG current change (%, negative = inhibition) at 1uM” value came out at 16.4%. Consider `O=C(CSc1ccc(F)cc1)Nc1ccc(Br)cc1`, for which the “hERG current change (%, negative = inhibition) at 1uM” value worked out at 13.9%. As for `Cn1ccnc1C(O)c1cccc(OCc2ccccc2)c1` (stereo not shown), the “hERG current change (%, negative = inhibition) at 1uM” value came out at 9.51%. The result for `CC1CCCC(C)N1C(=O)COC(=O)c1ccc(F)c(S(=O)(=O)N2CCOCC2)c1` (stereo not shown) reads 9.85%. In the case of `CC(C)(O)[C@H]1O[C@H]2CC[C@@]3(C)[C@@](O)(CC[C@H]4Cc5c([nH]c6ccccc56)[C@@]43C)C2=CC1=O` it was 14.4%. In the case of `CCCn1c(C)cc(C(=O)CN2C(=O)c3cccc(N)c3C2=O)c1C` it was -0.486%; in that of `C[C@@H](NC(=O)[C@@H]1Cc2ccccc2CN1C(=O)OC(C)(C)C)C(=O)NC1CCCC1`, 15.5%; in that of `COc1ccccc1NS(=O)(=O)c1cccc(NC(=O)c2nc3nc(C)cc(C)n3n2)c1`, -8.12%. Turning to `O=C1S/C(=C\C=C\c2ccco2)C(=O)N1c1ccc(O)cc1`, the “hERG current change (%, negative = inhibition) at 1uM” value worked out at 8.58%.

For `COc1ccc2c(c1)O[C@@]1(CCCC[C@@H]1C)CC2=O`, the “hERG current change (%, negative = inhibition) at 1uM” value is reported as 11.9%. The result for `O=C(c1nnc(-c2ccc(Cl)cc2)o1)C1CCCC1` reads 5.51%; that for `CCC(C)(C)C1CCc2nc3ccccc3c(C(=O)OC(C)C(=O)Nc3c(C)n(C)n(-c4ccccc4)c3=O)c2C1` (stereo not shown), 11.4%; that for `CCn1c(=O)c2cc(C(=O)Nc3ccc(OC)cc3OC)sc2c2ccccc21`, 12.4%. Regarding `CN1CCN(C(=O)CCc2nc3ccccc3c(=O)[nH]2)CC1`, the “hERG current change (%, negative = inhibition) at 1uM” value is 15.6%. The result for `COc1ccc(/[N+]([O-])=C/c2ccoc2)cc1` reads 14%; that for `CCC(=O)NC(=S)NNC(=O)c1ccccc1[N+](=O)[O-]`, 8.4%; that for `CC(C)c1ccc(NC(=O)C(c2ccccc2)N2CCOCC2)cc1` (stereo not shown), 1.05%.

Consider `Cc1ccc(NC(=O)CSc2nnc(CNC(=O)c3c(F)cccc3Cl)o2)cc1`, for which the “hERG current change (%, negative = inhibition) at 1uM” value turned out to be 11.5%. With `N#Cc1ccccc1NC(=O)CC1CCCCC1`, the “hERG current change (%, negative = inhibition) at 1uM” value was 6.16%. Turning to `O=C(c1ccc2c(c1)OCO2)N1CCC2(CC1)Oc1ccc(Cl)cc1C(=O)C21CC(c2ccccc2)=NO1` (stereo not shown), the “hERG current change (%, negative = inhibition) at 1uM” value turned out to be 3.4%. Take `CCOCCCn1c(=S)[nH]c2cc(C(=O)NCC(OC)OC)ccc2c1=O`: the “hERG current change (%, negative = inhibition) at 1uM” value is reported as 7.34%.

Consider `CC(=O)OCCCN1C(=O)c2ccc(Br)cc2C1=O`, for which the “hERG current change (%, negative = inhibition) at 1uM” value came out at 8.06%.

`NS(=O)(=O)c1ccc2nc(NC(=O)c3ccc4ncsc4c3)sc2c1`: the “hERG current change (%, negative = inhibition) at 1uM” value is recorded as 9.12%. `COC(=O)C1=C(N)Oc2c(c(=O)oc3ccccc23)[C@]12C(=O)N(C)c1ccccc12`: the “hERG current change (%, negative = inhibition) at 1uM” value is -0.466%.

As for `CCc1ccc(OCc2n[nH]c(=S)n2Cc2ccccc2)cc1`, the “hERG current change (%, negative = inhibition) at 1uM” value is 11.2%. Turning to `O=CNc1ccccc1Oc1ccccc1`, the “hERG current change (%, negative = inhibition) at 1uM” value was found to be 9.19%. The result for `CCOC(=O)c1ccc(NC(=O)CNC(=O)C2CCCCC2)cc1` reads -3%; that for `COc1ccccc1N1CCN(C(=O)CSc2nc3ccccc3nc2N2CCCCC2)CC1`, 16.5%; that for `N#Cc1ccc(C(=O)NNC(=O)c2ccncc2)cc1`, 12.6%.
